PubChem BioAssay AID360 (National Center for Advancing Translational Sciences (NCATS), 2006)
Hit rate of the full screen: of about 48,000 compounds, about 550 (1.1%) were called active. Roughly 4% stayed inconclusive and do not appear here. No stated cut-off is given here; in the data, active means potency below about 15 µM; inconclusive means mostly about 16 µM to 33 µM; inactive means weaker than that. Some of the results follow.

Each compound was assayed against Lysosomal acid glucosylceramidase (Homo sapiens) (UniProt P04062) (assay: Glucocerebrosidase). Conditions: purified enzyme, resorufin glucoside fluorescence (screen aimed at inhibitors), 20 min.
UniProt P04062, sequence (P04062 whole entry, looked up): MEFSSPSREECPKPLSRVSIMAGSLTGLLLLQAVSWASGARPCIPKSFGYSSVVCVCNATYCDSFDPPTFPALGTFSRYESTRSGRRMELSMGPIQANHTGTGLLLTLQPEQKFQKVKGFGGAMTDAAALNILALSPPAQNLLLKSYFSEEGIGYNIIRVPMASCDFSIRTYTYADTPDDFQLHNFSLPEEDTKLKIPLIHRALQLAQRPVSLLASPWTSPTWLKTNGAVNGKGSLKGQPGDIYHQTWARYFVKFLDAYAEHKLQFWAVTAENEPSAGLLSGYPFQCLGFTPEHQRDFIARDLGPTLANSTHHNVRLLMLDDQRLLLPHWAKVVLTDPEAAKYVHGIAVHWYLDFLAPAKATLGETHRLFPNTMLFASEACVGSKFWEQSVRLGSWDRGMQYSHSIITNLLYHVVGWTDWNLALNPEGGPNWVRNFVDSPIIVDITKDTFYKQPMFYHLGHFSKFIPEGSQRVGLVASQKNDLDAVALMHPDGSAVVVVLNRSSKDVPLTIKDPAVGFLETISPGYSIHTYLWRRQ
Method in brief: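 Normal human glucocerebrosidase (0.2 nM final) was assayed with resorufin β-D-glucopyranoside (30 uM final) in 50mM citric acid/KH2PO4, 10mM sodium taurocholate, 0.01% tween-20, pH 5.9. Compounds were titrated; fluorescence (Ex 548, Em 600) read after 20 min at RT.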
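Further: the screen sought inhibitors.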
Potency means the concentration at half of the fitted maximal effect.

Potency, inactive:
O=C(Cn1c(SCC(=O)N2CCCc3ccccc32)nc2ccccc21)N1CCCC1 > 76.9 µM
COc1ccc2cc3cc(C(=O)Nc4ccc5c(c4)OCO5)oc3nc2c1 > 76.9 µM
O=C(Cc1coc2ccc3ccccc3c12)N1CCCC1 > 76.9 µM
Cc1ccn(CC(=O)O)c(=O)c1 > 76.9 µM
Nc1ccc(-c2cc(N)n(-c3ccccc3)n2)cc1 > 76.9 µM
Cn1c(SCc2ccon2)nc2ccccc2c1=O > 76.9 µM
COC(=O)C1Cc2c([nH]c3ccccc23)CN1 (configuration not stated) > 76.9 µM
CC1CCN(C(=O)C2CCCN(S(C)(=O)=O)C2)CC1 (configuration not stated) > 76.9 µM
Cn1c(SCC(=O)NCc2cccs2)nnc1-c1ccc(S(=O)(=O)N2CCCC2)cc1 > 76.9 µM
O=C(NCCc1ccc2c(c1)OCCO2)c1cc2ccccc2o1 > 76.9 µM
O=S(=O)(Nc1ccc2nc(-c3ccc(Br)o3)[nH]c2c1)c1ccccc1 > 76.9 µM
c1ccc(-n2c(Cc3cn4ccsc4n3)nnc2N2CCOCC2)cc1 > 76.9 µM
Cc1ccc(S(=O)(=O)c2nc(-c3ccccc3)oc2NCc2cccnc2)cc1 > 76.9 µM
c1csc(-c2ccc3ccccc3n2)c1 > 76.9 µM
CCCC(=O)c1cc(F)c(N2CCOCC2)cc1C > 76.9 µM
CCCCNC(=O)c1ccc(N2CCOCC2)c(NS(=O)(=O)c2ccc(OC)cc2)c1 > 76.9 µM
Cn1c(Cc2ccccc2)nnc1SCC(=O)Nc1ccc2c(c1)OCCO2 > 76.9 µM
CCC(C)(C(=O)NC1CCCCC1)N(C)C(=O)c1ccccn1 (configuration not stated) > 76.9 µM
COc1ccc(NC(=O)Nc2cc(C)ccc2OC)cc1 > 76.9 µM
Nc1c(C(=O)NCCc2ccccc2)nnn1Cc1ccccc1 > 76.9 µM
Cc1noc(C)c1COC(=O)CCOc1ccccc1 > 76.9 µM
CCCOc1ccc(OCCSc2ncccn2)cc1 > 76.9 µM
CCCc1nnc(SCC(=O)N2CCOCC2)n1CCCOC > 76.9 µM
O=C(OCC(=O)c1ccc(S(=O)(=O)N2CCCC2)cc1)C1=COCCO1 > 76.9 µM
CCOC(=O)c1c(C)nc2c3ccccc3ccn12 > 76.9 µM
CCC(CC)c1nnc(NS(=O)(=O)Cc2ccccc2)s1 > 76.9 µM
COc1cccc(CC(=O)Nc2nccs2)c1 > 76.9 µM
COCCCNc1nc2c([nH]1)c(=O)[nH]c(=O)n2C > 76.9 µM
CCn1cc(Br)c(C(=O)Nc2ccc(OC)cc2)n1 > 76.9 µM
COc1cc(C2c3sc(=O)[nH]c3SC3C4CCC(C4)C23)ccc1O (configuration not stated) > 76.9 µM
Cc1cccc(OCc2nnc(SCn3nnc4ccccc4c3=O)o2)c1 > 76.9 µM
O=C(Nc1ccc2oc(-c3ccncc3)nc2c1)c1cccs1 > 76.9 µM
CC1(C)NC(=O)N(CN2C(=O)NC(C)(C)C2=O)C1=O > 76.9 µM
CC(C)CC1(C)NC(=O)N(CCN2C(=O)c3ccccc3C2=O)C1=O (configuration not stated) > 76.9 µM
FC(F)(F)c1cc(-c2ccccc2)nc(N2CCCCC2)n1 > 76.9 µM
Cc1cccc(Cn2c(N3CCN(c4ccccc4)CC3)nc3c2c(=O)n(C)c(=O)n3C)c1 > 76.9 µM
Cc1ccc(-c2nnc(SCC(=O)Nc3nc4c(s3)CCCC4)n2C)cc1 > 76.9 µM
O=C(Cn1nc(-c2ccccc2)ccc1=O)NCc1ccc2c(c1)OCO2 > 76.9 µM
COc1ccc(S(=O)(=O)N2Cc3ccccc3CC2C(=O)Nc2nccs2)cc1OC (configuration not stated) > 76.9 µM
COc1cccc(C2=NOC(C(=O)NC3CCCCC3)C2)c1 (configuration not stated) > 76.9 µM
O=C(OCC(=O)N1CCOCC1)c1ccc2c(c1)OCCO2 > 76.9 µM
Cc1c(Cl)cccc1N1C(=O)CC(N(O)c2ccccc2)C1=O (configuration not stated) > 76.9 µM
CCSc1nc(-c2ccco2)ccc1C#N > 76.9 µM
CCN(CC)c1ccc(NC(=O)CN2CCN(CC(=O)Nc3ccc(F)cc3)CC2)cc1 > 76.9 µM
COC(=O)c1ccc(CN2CCN(Cc3ccc(C(=O)OC)o3)CC2)o1 > 76.9 µM
c1ccc(-c2nnc(CSc3nc4ccccc4[nH]3)o2)cc1 > 76.9 µM
COc1ccc(C(=O)Nc2cccc(N(C)S(C)(=O)=O)c2)cc1OC > 76.9 µM
CCOC(=O)CSC1=C(C#N)C(c2ccccc2OCC)C(C(=O)OCC)C(=O)N1 (configuration not stated) > 76.9 µM
Cc1cc(NC(=O)Nc2cc(C)nn2-c2ccccc2)n(-c2ccccc2)n1 > 76.9 µM
OCc1nc2ccccc2n1CC(O)COc1ccccc1 (configuration not stated) > 76.9 µM
COC(=O)CSc1nnc(-c2ccc(OC)cc2OC)o1 > 76.9 µM
COc1ccc(CCNC(=O)C2CCCCC2C(=O)O)cc1OC (configuration not stated) > 76.9 µM
CN(c1ccc(F)cc1)S(=O)(=O)c1ccc2[nH]cc(C(=O)O)c(=O)c2c1 > 76.9 µM
O=C(c1ccncc1)N1CCN(C(=O)c2ccncc2)CC1 > 76.9 µM
COC(=O)c1cc(=O)nc2sc3ccccc3n12 > 76.9 µM
c1ccc(-c2oc3ncnc(N4CCOCC4)c3c2-c2ccccc2)cc1 > 76.9 µM
O=C(c1nc2nc(-c3ccc(Cl)cc3)cc(C(F)(F)F)n2n1)N1CCOCC1 > 76.9 µM
Cc1c(NC(=O)c2cc(-c3ccco3)on2)c(=O)n(-c2ccccc2)n1C > 76.9 µM
CCOC(=O)N1CCN(C(=O)c2cc(-c3ccc(F)cc3)[nH]c2C)CC1 > 76.9 µM
Cc1csc(SCc2nnc(-c3ccccc3Br)o2)n1 > 76.9 µM
CCCc1cc(N2CCCC(C(=O)Nc3ccc(OC)cc3OC)C2)n2ncnc2n1 (configuration not stated) > 76.9 µM
C/C(N)=C(/C#N)C(=O)CSc1nnc(Cc2ccccc2F)n1N > 76.9 µM
COC(=O)c1[nH]c2cccc(OC)c2c1NC(=O)CCN1CC(C)CC(C)C1 (configuration not stated) > 76.9 µM
CC1=CC(C)(C)N2C(=O)C3(C(C#N)=C(N)Oc4cc(C)oc(=O)c43)c3cccc1c32 (configuration not stated) > 76.9 µM
O=C1OC(NC(=O)c2ccccc2)C(n2cc(CO)nn2)=C1Cl (configuration not stated) > 76.9 µM
CCOC(=O)c1ccc(NC(=O)CCc2c(C)nc3ncnn3c2C)cc1 > 76.9 µM
C/C(=C1/SC(N2CC(C)OC(C)C2)=NC1=O)c1ccccc1 (configuration not stated) > 76.9 µM
COc1ccc(NC(=O)c2ccc3c(c2)OCO3)cc1Cl > 76.9 µM
CN1CCN(C(CNS(=O)(=O)c2ccc(F)cc2)c2cccnc2)CC1 (configuration not stated) > 76.9 µM
COC(=O)c1ccccc1NC(=O)CN(CCc1ccccc1)S(C)(=O)=O > 76.9 µM
COC(=O)C1C(=O)NC(SC)=C(C#N)C1c1ccccc1F (configuration not stated) > 76.9 µM
Oc1ccc(N2CCN(C(c3cccnc3)c3nnnn3Cc3ccccc3)CC2)cc1 (configuration not stated) > 76.9 µM
CC(C)COC(=O)Nc1ccccc1C(=O)N1CCOCC1 > 76.9 µM
Cc1nn(-c2ccccc2)c(C)c1NC(=O)c1ccc(S(=O)(=O)N2CCCC2)cc1 > 76.9 µM
CCCN1C(=O)c2ccc(C(=O)NC3=NCCS3)cc2C1=O > 76.9 µM
O=C(COCCOCC(=O)N(c1ccccn1)C1CCCCC1)N(c1ccccn1)C1CCCCC1 > 76.9 µM
COc1ccc(-c2noc(-c3ccccc3C(=O)NCc3ccco3)n2)cc1 > 76.9 µM
COc1ccc(CC(NC(C)=O)C(=O)N2CCN(C(=O)N(C(C)C)C(C)C)CC2)cc1 (configuration not stated) > 76.9 µM
COC(=O)c1ccccc1NC(=O)c1cc2sccc2n1C > 76.9 µM
CCOC(=O)CSc1nc2c(c(=O)[nH]c(=O)n2C)n1CCc1ccccc1 > 76.9 µM
c1ccc(Nc2nn[nH]n2)cc1 > 76.9 µM
CCCn1c(SCC(=O)Nc2c(CC)cccc2CC)nnc1C(C)C > 76.9 µM
CCOC(=O)c1nnn(-c2nonc2N)c1CSc1ccccn1 > 76.9 µM
N#CC1(c2c(O)nc3n(c2=O)CCCS3)CCCCC1 > 76.9 µM
O=C(c1ccccc1NS(=O)(=O)c1cccs1)N1CCCC1 > 76.9 µM
Cc1ccc(C(=O)NCc2ccc3c(c2)OCO3)cc1S(=O)(=O)N1CCOCC1 > 76.9 µM
O=C(O)CN1CCOCCOCCN(CC(=O)O)CCOCCOCC1 > 76.9 µM
CCCOc1ccc(/C(O)=C2/C(=O)C(=O)N(CCCOC)C2c2ccncc2)cc1 (configuration not stated) > 76.9 µM
COc1nnc(-c2ccc(N3CCCCC3)c(N)c2)c2ccccc12
COc1cccc(Nc2nc(-c3sc(N)nc3C)cs2)c1
COc1nc2ccccc2cc1-c1noc(-c2cccnc2)n1 > 76.9 µM
CCCn1c(=O)c2ccccc2n2c(SCC(=O)c3cc(C)n(CC4CCCO4)c3C)nnc12 (configuration not stated) > 76.9 µM
